Assay results: the supplement of paper PMC8728848
The list shows a part of the results.

Legend:
Experiment in all cases: glycan array binding signal (z-score within array); higher = stronger binding
Settings in all cases: glycan notation: IUPAC condensed, linker removed
[1] = target: GlcNAc(b1-3)Gal(b1-4)GlcNAc(b1-3)[GlcNAc(b1-3)Gal(b1-4)GlcNAc(b1-3)]GalNAc
Summary of the method: (§1)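 The Consortium for Functional Glycomics database supplied 3228 glycan arrays, of which those lacking an available protein sequence were dropped. The binding signal, a within-array Z-score, was averaged across arrays of the same protein sequence and across linkers. Negative scores can be read as non-binding.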

[2] = target: GlcNAc(b1-3)Gal(b1-4)GlcNAc(b1-6)[Gal(b1-3)]GalNAc
Summary of the method: as §1

[3] = target: GlcNAc(b1-3)Gal(b1-4)GlcNAc(b1-6)[GlcNAc(b1-3)Gal(b1-3)]GalNAc
Summary of the method: as §1

[4] = target: GlcNAc(b1-3)Gal(b1-4)GlcNAc(b1-6)[GlcNAc(b1-3)]Gal(b1-4)GlcNAc
Summary of the method: as §1

GlcNAc(b1-3)GalNAc = target: GlcNAc(b1-3)GalNAc
Summary of the method: as §1

GlcNAc(b1-3)Man = target: GlcNAc(b1-3)Man
Summary of the method: as §1

[5] = target: GlcNAc(b1-3)[GlcNAc(b1-4)][GlcNAc(b1-6)]GlcNAc
Summary of the method: as §1

[6] = target: GlcNAc(b1-3)[GlcNAc(b1-6)]Gal(b1-4)GlcNAc
Summary of the method: as §1

[7] = target: GlcNAc(b1-3)[GlcNAc(b1-6)]GalNAc
Summary of the method: as §1

[8] = target: GlcNAc(b1-4)Gal(b1-4)GlcNAc
Summary of the method: as §1

GlcNAc(b1-4)GlcNAc = target: GlcNAc(b1-4)GlcNAc
Summary of the method: as §1

[9] = target: GlcNAc(b1-4)GlcNAc(b1-4)GlcNAc
Summary of the method: as §1

[10] = target: GlcNAc(b1-4)GlcNAc(b1-4)GlcNAc(b1-4)GlcNAc(b1-4)GlcNAc
Summary of the method: as §1

[11] = target: GlcNAc(b1-4)GlcNAc(b1-4)GlcNAc(b1-4)GlcNAc(b1-4)GlcNAc(b1-4)GlcNAc
Summary of the method: as §1

[12] = target: GlcNAc(b1-4)[GlcNAc(b1-6)]GalNAc
Summary of the method: as §1

[13] = target: GlcNAc(b1-6)Gal(b1-4)GlcNAc
Summary of the method: as §1

GlcNAc(b1-6)GalNAc = target: GlcNAc(b1-6)GalNAc
Summary of the method: as §1

GlcNAc3Prop(b1-4)GlcNAc = target: GlcNAc3Prop(b1-4)GlcNAc
Summary of the method: as §1

[14] = target: GlcNAc6S(b1-3)Gal(b1-4)GlcNAc
Summary of the method: as §1

Kdn(a2-3)Gal(b1-3)GalNAc = target: Kdn(a2-3)Gal(b1-3)GalNAc
Summary of the method: as §1

Kdn(a2-3)Gal(b1-3)GlcNAc = target: Kdn(a2-3)Gal(b1-3)GlcNAc
Summary of the method: as §1

Kdn(a2-3)Gal(b1-4)Glc = target: Kdn(a2-3)Gal(b1-4)Glc
Summary of the method: as §1

Kdn(a2-3)Gal(b1-4)GlcNAc = target: Kdn(a2-3)Gal(b1-4)GlcNAc
Summary of the method: as §1

[15] = target: Kdn(a2-3)Gal(b1-4)[Fuc(a1-3)]GlcNAc
Summary of the method: as §1

Kdn(a2-6)Gal(b1-4)GlcNAc = target: Kdn(a2-6)Gal(b1-4)GlcNAc
Summary of the method: as §1

[16] = target: Man(a1-2)Man(a1-2)Man(a1-3)Man
Summary of the method: as §1

[17] = target: Man(a1-2)Man(a1-2)Man(a1-6)[Man(a1-3)]Man
Summary of the method: as §1

Man(a1-2)Man(a1-3)Man = target: Man(a1-2)Man(a1-3)Man
Summary of the method: as §1

[18] = target: Man(a1-2)Man(a1-3)[Man(a1-2)Man(a1-6)]Man
Summary of the method: as §1

[19] = target: Man(a1-2)Man(a1-3)[Man(a1-2)Man(a1-6)]Man(a1-6)[Man(a1-2)Man(a1-2)Man(a1-3)]Man
Summary of the method: as §1

[20] = target: Man(a1-2)Man(a1-3)[Man(a1-2)Man(a1-6)]Man(a1-6)[Man(a1-2)Man(a1-2)Man(a1-3)]Man(b1-4)GlcNAc(b1-4)GlcNAc
Summary of the method: as §1

[21] = target: Man(a1-2)Man(a1-3)[Man(a1-6)]Man(a1-6)[Man(a1-2)Man(a1-3)]Man(b1-4)GlcNAc(b1-4)GlcNAc
Summary of the method: as §1

[22] = target: Man(a1-2)Man(a1-6)[Man(a1-3)]Man(a1-6)[Man(a1-2)Man(a1-2)Man(a1-3)]Man
Summary of the method: as §1

[23] = target: Man(a1-2)Man(a1-6)[Man(a1-3)]Man(a1-6)[Man(a1-2)Man(a1-2)Man(a1-3)]Man(b1-4)GlcNAc(b1-4)GlcNAc
Summary of the method: as §1

Man(a1-3)[Man(a1-6)]Man = target: Man(a1-3)[Man(a1-6)]Man
Summary of the method: as §1

[24] = target: Man(a1-3)[Man(a1-6)]Man(a1-6)[Man(a1-2)Man(a1-3)]Man(b1-4)GlcNAc(b1-4)GlcNAc
Summary of the method: as §1

[25] = target: Man(a1-3)[Man(a1-6)]Man(a1-6)[Man(a1-3)]Man
Summary of the method: as §1

B1: Gal 4 (Mus musculus), P56470 (protein)
chain: MAYVPAPGYQPTYNPTLPYYQPIPGGLNVGMSVYIQGVASEHMKRFFVNFVVGQDPGSDVAFHFNPRFDGWDKVVFNTLQGGKWGSEERKRSMPFKKGAAFELVFIVLAEHYKVVVNGNPFYEYGHRLPLQMVTHLQVDGDLQLQSINFIGGQPLRPQGPPMMPPYPGPGHCHQQLNSLPTMEGPPTFNPPVPYFGRLQGGLTARRTIIIKGYVPPTGKSFAINFKVGSSGDIALHINPRMGNGTVVRNSLLNGSWGSEEKKITHNPFGPGQFFDLSIRCGLDRFKVYANGQHLFDFAHRLSAFQRVDTLEIQGDVTLSYVQI
[1]
  glycan array binding signal (z-score): -0.255
[2]
  glycan array binding signal (z-score): -0.174
[3]
  glycan array binding signal (z-score): -0.018
[4]
  glycan array binding signal (z-score): -0.278
GlcNAc(b1-3)GalNAc
  glycan array binding signal (z-score): -0.231
GlcNAc(b1-3)Man
  glycan array binding signal (z-score): -0.218
[5]
  glycan array binding signal (z-score): -0.236
[6]
  glycan array binding signal (z-score): -0.239
[7]
  glycan array binding signal (z-score): -0.232
[8]
  glycan array binding signal (z-score): -0.235
GlcNAc(b1-4)GlcNAc
  glycan array binding signal (z-score): -0.227
[9]
  glycan array binding signal (z-score): -0.23
[10]
  glycan array binding signal (z-score): -0.225
[11]
  glycan array binding signal (z-score): -0.225
[12]
  glycan array binding signal (z-score): -0.219
[13]
  glycan array binding signal (z-score): -0.233
GlcNAc(b1-6)GalNAc
  glycan array binding signal (z-score): -0.24
GlcNAc3Prop(b1-4)GlcNAc
  glycan array binding signal (z-score): -0.2
[14]
  glycan array binding signal (z-score): -0.227
Kdn(a2-3)Gal(b1-3)GalNAc
  glycan array binding signal (z-score): -0.24
Kdn(a2-3)Gal(b1-3)GlcNAc
  glycan array binding signal (z-score): -0.224
Kdn(a2-3)Gal(b1-4)Glc
  glycan array binding signal (z-score): -0.229
Kdn(a2-3)Gal(b1-4)GlcNAc
  glycan array binding signal (z-score): -0.218
[15]
  glycan array binding signal (z-score): -0.25
Kdn(a2-6)Gal(b1-4)GlcNAc
  glycan array binding signal (z-score): -0.242
[16]
  glycan array binding signal (z-score): -0.219
[17]
  glycan array binding signal (z-score): -0.245
Man(a1-2)Man(a1-3)Man
  glycan array binding signal (z-score): -0.239
[18]
  glycan array binding signal (z-score): -0.238
[19]
  glycan array binding signal (z-score): -0.225
[20]
  glycan array binding signal (z-score): -0.222
[21]
  glycan array binding signal (z-score): -0.227
[22]
  glycan array binding signal (z-score): -0.25
[23]
  glycan array binding signal (z-score): -0.225
Man(a1-3)[Man(a1-6)]Man
  glycan array binding signal (z-score): -0.233
[24]
  glycan array binding signal (z-score): -0.166
[25]
  glycan array binding signal (z-score): -0.241
